Experimental findings from the BET-seq Pho4 binding data (Le et al. 2018) are described below.

The list shows a part of the results. These are noisy estimates, calculated here from bound and input reads.

The target in this assay is T1, Pho4 (S. cerevisiae) (UniProt P07270).
T1 sequence: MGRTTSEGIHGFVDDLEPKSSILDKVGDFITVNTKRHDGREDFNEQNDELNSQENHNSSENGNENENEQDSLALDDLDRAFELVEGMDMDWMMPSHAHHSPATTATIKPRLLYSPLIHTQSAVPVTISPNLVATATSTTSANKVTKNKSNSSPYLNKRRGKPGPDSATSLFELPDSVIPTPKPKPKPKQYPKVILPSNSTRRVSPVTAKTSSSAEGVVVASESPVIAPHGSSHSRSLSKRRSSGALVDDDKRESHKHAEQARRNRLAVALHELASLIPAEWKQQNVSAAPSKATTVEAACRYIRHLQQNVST
Put plainly: relative binding free energy (BET-seq); higher = weaker binding. The note with it: reference: library average.
Take GCGATCACGTGGTTTG: the “relative binding free energy” value worked out at 0.22 kcal/mol. Turning to GTTTTCACGTGTGTAT, the “relative binding free energy” value was determined as 0.35 kcal/mol. Regarding AATATCACGTGCAGGT, the “relative binding free energy” value is 0.08 kcal/mol.

Take TACATCACGTGGTGGG: the “relative binding free energy” value came to 0.12 kcal/mol. Under TTATGCACGTGTGTCC stands 0.12 kcal/mol; under TAGAGCACGTGATGTT, 0.01 kcal/mol.

For the sequence TTCCGCACGTGGTGGG, the “relative binding free energy” value is -0.18 kcal/mol. Under TTCGGCACGTGTTTTG stands -0.03 kcal/mol; under TGGAGCACGTGAAGGC, 0.29 kcal/mol. Under GTAGTCACGTGATGGA stands 0.32 kcal/mol; under ATAGGCACGTGCGAGT, -0.19 kcal/mol; under GTTTACACGTGACAGG, 0.3 kcal/mol. With GTTGTCACGTGAAGAA, the “relative binding free energy” value came to 0.36 kcal/mol.

Consider TCGGACACGTGAGGCG, for which the “relative binding free energy” value was found to be 0.32 kcal/mol.

For the sequence TTTTTCACGTGAATAG, the “relative binding free energy” value worked out at 0.4 kcal/mol. As to ATAAGCACGTGGTGGG, the “relative binding free energy” value was -0.13 kcal/mol. In the case of CGGGTCACGTGGCAGG, the “relative binding free energy” value is -0.02 kcal/mol. Under AGGATCACGTGGTGGC stands 0.12 kcal/mol. For the sequence TGAAGCACGTGTAAGG, the “relative binding free energy” value is 0.02 kcal/mol. Under GTGGGCACGTGAATTA stands 0.22 kcal/mol; under GTGGTCACGTGTAGTC, 0.17 kcal/mol. Under AGTTCCACGTGATTGT stands 0.17 kcal/mol; under TGTTACACGTGCTGTT, 0.02 kcal/mol; under TAGGTCACGTGCATAT, 0.1 kcal/mol.

On to GCGTTCACGTGCTGTG, for which the “relative binding free energy” value came to 0.38 kcal/mol. GGGGACACGTGGATGA: the “relative binding free energy” value was 0.13 kcal/mol. For ATATGCACGTGCGGAA, the “relative binding free energy” value is -0.06 kcal/mol. GGGGGCACGTGATAAG: the “relative binding free energy” value is 0.1 kcal/mol. Under TGACACACGTGATTTT stands 0.42 kcal/mol. For the sequence ATTTTCACGTGAGGAT, the “relative binding free energy” value was determined as 0.36 kcal/mol. On to CAGTTCACGTGAGTGA, for which the “relative binding free energy” value amounted to 0.29 kcal/mol. The figure for GGGGTCACGTGTGTGG is 0.25 kcal/mol; for GGGAACACGTGAGTAT it is 0.28 kcal/mol; for TTCGACACGTGGTTGT it is 0.18 kcal/mol. Under ATAGGCACGTGGTTTC stands -0.13 kcal/mol; under ATGAGCACGTGGTGAA, -0.13 kcal/mol; under CTTGGCACGTGAAAGG, 0.14 kcal/mol. In the case of CTGGTCACGTGGATTT, the “relative binding free energy” value came to 0.21 kcal/mol. The figure for AGTAACACGTGGTCGT is -0.17 kcal/mol.

In the case of TTTATCACGTGGTCGC, the “relative binding free energy” value turned out to be 0.03 kcal/mol. Under TTGAGCACGTGGAATG stands 0.03 kcal/mol; under GGGGTCACGTGAAGCA, 0.42 kcal/mol; under GGAGTCACGTGTGGCG, 0.17 kcal/mol. Under GTGGGCACGTGGTCGG stands -0.07 kcal/mol; under TCTGTCACGTGAGGAT, 0.23 kcal/mol. On to ATGCGCACGTGTAATG, for which the “relative binding free energy” value is 0.04 kcal/mol. The figure for GACGGCACGTGTGGCG is 0.25 kcal/mol; for GCGTACACGTGAGTGT it is 0.1 kcal/mol. On to TAAGACACGTGGTGAT, for which the “relative binding free energy” value is 0.13 kcal/mol. As to AAGTTCACGTGCTGTG, the “relative binding free energy” value worked out at 0.09 kcal/mol. GCTTTCACGTGGTAAG: the “relative binding free energy” value turned out to be 0.25 kcal/mol.

As for GGGGTCACGTGTTGTT, the “relative binding free energy” value was 0.24 kcal/mol. For AAGTTCACGTGTCTGG, the “relative binding free energy” value worked out at 0.15 kcal/mol. Consider ATTGCCACGTGAGGAT, for which the “relative binding free energy” value was 0.21 kcal/mol. The figure for GTGTCCACGTGTGTAA is 0 kcal/mol.

Regarding TGGTACACGTGGGATT, the “relative binding free energy” value was found to be 0.01 kcal/mol. Under AGGCCCACGTGTGGGG stands -0.26 kcal/mol. Take GAAGGCACGTGGTGCG: the “relative binding free energy” value was -0.17 kcal/mol. CATTTCACGTGGGAGG: the “relative binding free energy” value was -0.03 kcal/mol.

GCGGACACGTGGTTGA: the “relative binding free energy” value came out at 0.22 kcal/mol. The figure for TTAGTCACGTGGATGC is 0.24 kcal/mol; for TGAGGCACGTGGGATT it is -0.1 kcal/mol. Under GTTTACACGTGGTTGT stands 0.17 kcal/mol; under GAAGACACGTGTTGTA, 0 kcal/mol; under TCCTTCACGTGTTAGG, 0.27 kcal/mol.

Consider ATGTACACGTGGGTCA, for which the “relative binding free energy” value was -0.11 kcal/mol. The figure for TAGGACACGTGAGGGT is 0.22 kcal/mol. In the case of AGGTGCACGTGGTCGG, the “relative binding free energy” value was -0.14 kcal/mol. Under ATAGCCACGTGTGGGT stands -0.1 kcal/mol. Turning to CAGGTCACGTGCGTGG, the “relative binding free energy” value was -0.07 kcal/mol. Under TTGGTCACGTGTTAAT stands 0.19 kcal/mol. The figure for AGAAACACGTGTTGTG is -0.04 kcal/mol. Regarding ATAGTCACGTGTAGGG, the “relative binding free energy” value was 0.09 kcal/mol.

Take GTTGACACGTGGAGGC: the “relative binding free energy” value came to 0.07 kcal/mol. The figure for GCCGGCACGTGGTAGT is 0.01 kcal/mol. With TCTAGCACGTGTGTGG, the “relative binding free energy” value was -0.06 kcal/mol. On to TATGACACGTGGTCTT, for which the “relative binding free energy” value is -0.24 kcal/mol. With TTCGACACGTGATTGT, the “relative binding free energy” value is 0.12 kcal/mol. The figure for TAAAACACGTGTAGGT is 0.12 kcal/mol.

Consider TGTTTCACGTGGGGGG, for which the “relative binding free energy” value came to 0.12 kcal/mol. Under GTAGGCACGTGGGGTC stands -0.21 kcal/mol; under TCCTGCACGTGTGAGG, 0.09 kcal/mol; under CGTGGCACGTGGGACG, -0.26 kcal/mol.

Consider GCCTGCACGTGTTGTG, for which the “relative binding free energy” value was 0.04 kcal/mol. On to GGTTTCACGTGCGCCG, for which the “relative binding free energy” value turned out to be 0.24 kcal/mol.

On to TTCTGCACGTGATGTA, for which the “relative binding free energy” value was 0.2 kcal/mol. The figure for TCGCTCACGTGGAGGT is 0.22 kcal/mol; for ACGGTCACGTGTGGAG it is 0.22 kcal/mol; for TAGTTCACGTGGAATA it is 0.35 kcal/mol. Take TGTTCCACGTGTAGGG: the “relative binding free energy” value was -0.08 kcal/mol. For the sequence TTGAGCACGTGGAAGC, the “relative binding free energy” value amounted to 0.08 kcal/mol. Take TAGGACACGTGAGTTG: the “relative binding free energy” value stood at 0.31 kcal/mol. The figure for CGTCACACGTGGGTAG is 0 kcal/mol; for ATTTTCACGTGAACGG it is 0.43 kcal/mol. Under TGTTTCACGTGACGCG stands 0.4 kcal/mol. As to TATTGCACGTGTTTCG, the “relative binding free energy” value is -0.02 kcal/mol. Take GGGTACACGTGCTTGG: the “relative binding free energy” value was 0.18 kcal/mol.

Regarding GTGTGCACGTGGCAGA, the “relative binding free energy” value is -0.13 kcal/mol. Turning to AATTTCACGTGGGATC, the “relative binding free energy” value came to 0.28 kcal/mol. The figure for AGTTACACGTGGGCGT is -0.05 kcal/mol; for GTGTGCACGTGCGGAC it is -0.04 kcal/mol.

In the case of ATTGTCACGTGTACTG, the “relative binding free energy” value was 0.06 kcal/mol. Under GGGGGCACGTGGTGCC stands -0.16 kcal/mol; under CAGATCACGTGTGGTT, 0.31 kcal/mol. As for ATGAACACGTGGGTAA, the “relative binding free energy” value was -0.05 kcal/mol. Under ATTTGCACGTGACGGA stands 0.11 kcal/mol; under GTACACACGTGTTAGT, 0.02 kcal/mol. The figure for GGTGACACGTGCGATG is 0.02 kcal/mol; for TGATTCACGTGGTCTG it is 0.29 kcal/mol; for TTGGCCACGTGGGCGG it is -0.19 kcal/mol. As to TATTTCACGTGTGGCA, the “relative binding free energy” value was determined as 0.41 kcal/mol. The figure for TGGGACACGTGGAGCT is 0.05 kcal/mol; for GGGTGCACGTGGTGCC it is -0.01 kcal/mol; for AGGGGCACGTGGGTAA it is -0.32 kcal/mol.

For the sequence ATCTTCACGTGTGTAG, the “relative binding free energy” value is 0.17 kcal/mol.
